Results: the supplement of paper PMC7826260
This is one part of the list. The data describe in vitro nicking of single-stranded DNA by Rep domains (1 h at 37 °C, 3 µM enzyme); the outer parts of the 90-letter strands are left off. Numbers give uncut DNA relative to the enzyme-free pool, as log2; strong cutting gives strongly negative numbers. There is no active / inactive call. Because reads are shares of a total, they shift together, so uncut sequences can rise above 0 when many others are cut.

Legend:
Experiment in all cases: uncleaved DNA left, log2 of reads against the no-enzyme library (log2 ratio); higher = less cleavage (more negative = more Rep cleavage of the k-mer); sequences stand for … in CTCGTCCG…ACCGGAGA
[1] = test system: T1, Rep nickase domain of Muscovy duck circovirus
T1 sequence (residues 1-111, tag not shown): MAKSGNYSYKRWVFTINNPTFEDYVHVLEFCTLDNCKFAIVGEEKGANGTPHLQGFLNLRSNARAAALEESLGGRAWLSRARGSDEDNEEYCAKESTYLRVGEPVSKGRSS
Description: (§1)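 A pool of 90-nt single-stranded DNAs with seven random bases just before the constant AC of the nick site (name = the seven bases) was cut by 3 µM recombinant His6-SUMO-tagged Rep nickase domain (300 nM DNA, 50 mM HEPES pH 8.0, 50 mM NaCl, 1 mM MnCl2, 1 h, 37 °C, three replicates). Uncut DNA was amplified and sequenced.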

[2] = test system: T2, Rep nickase domain of banana bunchy top virus
T2 sequence (residues 1-94, tag not shown): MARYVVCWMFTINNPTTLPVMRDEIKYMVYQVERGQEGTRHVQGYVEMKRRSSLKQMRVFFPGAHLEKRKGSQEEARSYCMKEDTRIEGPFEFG
Description: as §1

[3] = test system: T3, Rep nickase domain of cabbage leaf curl virus
T3 sequence (residues 1-116, tag not shown): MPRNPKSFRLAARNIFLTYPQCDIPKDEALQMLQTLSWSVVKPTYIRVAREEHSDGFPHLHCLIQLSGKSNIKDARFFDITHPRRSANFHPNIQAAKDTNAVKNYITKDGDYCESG
Description: as §1

[4] = test system: T4, Rep nickase domain of chickpea chlorotic dwarf virus
T4 sequence (residues 1-124, tag not shown): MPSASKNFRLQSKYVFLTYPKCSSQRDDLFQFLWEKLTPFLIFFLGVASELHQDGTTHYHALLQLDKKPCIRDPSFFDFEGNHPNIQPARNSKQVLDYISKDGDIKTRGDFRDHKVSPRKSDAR
Description: as §1

[5] = test system: T5, Rep nickase domain of faba bean necrotic yellows virus
T5 sequence (residues 1-98, tag not shown): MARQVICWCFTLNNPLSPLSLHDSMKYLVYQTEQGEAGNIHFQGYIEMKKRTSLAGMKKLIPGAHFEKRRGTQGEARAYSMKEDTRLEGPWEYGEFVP
Description: as §1

[6] = test system: T6, Rep nickase domain of maize striate mosaic virus
T6 sequence (residues 1-117, tag not shown): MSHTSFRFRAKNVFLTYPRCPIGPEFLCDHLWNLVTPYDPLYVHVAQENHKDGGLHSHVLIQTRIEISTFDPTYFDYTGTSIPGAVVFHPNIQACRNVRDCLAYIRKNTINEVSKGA
Description: as §1

[7] = test system: T7, Rep nickase domain of porcine circovirus 2
T7 sequence (residues 2-116, tag not shown): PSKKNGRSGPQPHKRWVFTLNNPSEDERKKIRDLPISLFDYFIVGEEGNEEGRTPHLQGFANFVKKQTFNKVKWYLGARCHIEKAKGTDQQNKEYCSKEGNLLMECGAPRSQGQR
Description: as §1

[8] = test system: T8, Rep nickase domain of tomato golden mosaic virus
T8 sequence (residues 1-124, tag not shown): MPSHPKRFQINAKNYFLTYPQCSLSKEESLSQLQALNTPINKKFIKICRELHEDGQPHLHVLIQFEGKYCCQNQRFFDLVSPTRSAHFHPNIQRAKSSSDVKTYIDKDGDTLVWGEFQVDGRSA
Description: as §1

[9] = test system: T9, Rep nickase domain of tomato yellow leaf curl virus
T9 sequence (residues 1-136, tag not shown): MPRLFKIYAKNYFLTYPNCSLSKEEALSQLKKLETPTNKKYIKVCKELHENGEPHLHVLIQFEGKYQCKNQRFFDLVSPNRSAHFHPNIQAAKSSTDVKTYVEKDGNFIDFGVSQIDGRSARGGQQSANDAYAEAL
Description: as §1

[10] = test system: T10, Rep nickase domain of wheat dwarf virus
T10 sequence (residues 1-137, tag not shown): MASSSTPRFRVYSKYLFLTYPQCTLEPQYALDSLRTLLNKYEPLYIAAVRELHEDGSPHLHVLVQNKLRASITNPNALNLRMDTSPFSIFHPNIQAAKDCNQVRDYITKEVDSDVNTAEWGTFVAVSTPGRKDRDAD
Description: as §1

Sequence | uncleaved DNA left (log2) [1] | uncleaved DNA left (log2) [2] | uncleaved DNA left (log2) [3] | uncleaved DNA left (log2) [4] | uncleaved DNA left (log2) [5] | uncleaved DNA left (log2) [6] | uncleaved DNA left (log2) [7] | uncleaved DNA left (log2) [8] | uncleaved DNA left (log2) [9] | uncleaved DNA left (log2) [10]
CATGTTT | 0.0511 | -1.23 | -0.351 | -2.6 | 0.0572 | -0.594 | -1.1 | 0.0448 | 0.153 | -0.106
CTCAAGC | 0.0964 | 0.0595 | -0.062 | -0.197 | 0.169 | -0.949 | 0.0802 | 0.155 | 0.0225 | 0.142
GTATAAG | 0.156 | 0.194 | -0.534 | -0.389 | 0.0469 | -0.784 | 0.193 | 0.0983 | 0.176 | 0.0203
TTGGTGA | -0.0159 | -0.0381 | -0.166 | -0.218 | 0.047 | -0.821 | 0.156 | -0.0427 | 0.0801 | -0.0542
ACTCTGC | -0.0455 | -0.11 | -0.806 | -0.585 | 0.0257 | -1.23 | 0.123 | -0.0868 | -0.013 | -0.323
TTCGACT | 0.0232 | -0.125 | -0.00924 | -0.077 | -0.172 | 1.14 | -0.0539 | -0.172 | -0.0504 | -0.0418
GCTAGTG | 0.258 | 0.244 | -0.315 | -0.17 | 0.13 | -0.691 | 0.416 | 0.282 | 0.285 | 0.265
CTCTACA | -0.141 | 0.0557 | -0.357 | -2.62 | 0.0441 | -0.771 | -0.00884 | -0.0863 | 0.0815 | 0.0406
ACCGTAC | 0.0653 | -0.0832 | -0.33 | -0.479 | -0.146 | -0.775 | 0.0512 | -0.202 | -0.0977 | -0.197
TCTACGG | -0.0245 | 0.0788 | 0.586 | 1.57 | -0.0682 | 2.17 | 0.165 | 0.0307 | -0.000631 | 0.0407
ACTTACC | -0.184 | -0.0264 | -0.225 | -0.787 | -0.0352 | -0.0179 | -0.324 | -0.0362 | -0.106 | -0.119
GATACAC | 0.0402 | 0.0381 | 0.149 | 0.556 | 0.000739 | 0.104 | 0.0574 | 0.0245 | -0.0112 | 0.119
AAAGGGC | 0.0723 | 0.0633 | 0.168 | 0.569 | 0.03 | 0.131 | 0.0472 | -5.66e-05 | 0.00452 | 0.0197
TCCGACT | 0.156 | -0.0606 | 0.144 | 0.172 | 0.158 | 0.793 | 0.105 | -0.0409 | 0.0674 | 0.107
GAGCCTC | 0.0206 | 0.112 | 0.252 | 0.572 | -0.0901 | 0.948 | -0.183 | -0.0506 | 0.082 | 0.0475
